Assay results: the RNAGym collection of RNA variant scans (doi:10.7554/elife.90254)
The source gives no read counts; variants with many changes may rest on few reads.

B1: LINE1-full (parent)
chain: UACGUAGGUGGUUUUCCCCUGAUAGUGCUAAGGGGGCCUGGAAGUUUGGACUGGGCAGAGCUCAACACAGCGUGGCAAAGUGGCUGUGGCUAGACUGCCUCUCUGGAUUCCUCGUCACUCAGCAGGGCAUCUCUGAGAGAAAUGCC

Variants of: B1
Assay: self-cleavage, relative activity (ratio to wild type); higher = more cleavage; in vitro, sequencing; the parent is a self-cleaving ribozyme
With G27U U45C A64C G106U A141G the self-cleavage was 0.17.
In the case of C28A U45C G70A A79G, the self-cleavage is reported as 0.1.
G27U U46A G75U C76U showed a self-cleavage of 1.02.
U29C U46C U47C gave a self-cleavage of 1.11.
U26C U115C A117G gave a self-cleavage of 2.76.
In the case of A30G A64G U102A U109C, the self-cleavage is reported as 1.62.
Variant U26G G48A U96C has a self-cleavage of 0.08.
U26G A31U U45C A77G showed a self-cleavage of 1.31.
A30G U62A A65G A94G showed a self-cleavage of 0.
G27A U29C A67U A136G gave a self-cleavage of 0.04.
With A30G C38U A57G U109C the self-cleavage was 0.89.
U26G A59U U87C showed a self-cleavage of 0.
With A31G A43G U62C the self-cleavage was 0.19.
In the case of A31G A42G A67U, the self-cleavage is reported as 0.11.
Variant U26C U73A A107G has a self-cleavage of 2.18.
U29A U47C A94G showed a self-cleavage of 0.61.
U29C U85A U134C gave a self-cleavage of 0.18.
For U26C U39A A59G A65G G88A C120U A136G, the self-cleavage was 0.
A30G U39C A65G C98G C131G gave a self-cleavage of 0.
Variant U29A A57U U115C U119C G122A C145G has a self-cleavage of 0.57.
A30C U62C U85G U134C U143A gave a self-cleavage of 0.
Work on A30G A31G A142G yielded a self-cleavage of 1.
Work on A30G U47C U62C A94G G127A yielded a self-cleavage of 0.
Variant A30G A59U A64G G83A U102C has a self-cleavage of 0.
A30G U62A U96A showed a self-cleavage of 0.08.
In the case of C28A U29C A142G, the self-cleavage is reported as 1.02.
A30G A64U A65G A92G gave a self-cleavage of 0.
Variant U29G A78G U134C has a self-cleavage of 2.51.
In the case of C28U A69U A94U, the self-cleavage is reported as 0.04.
Work on A30G A69G G74A U87A yielded a self-cleavage of 0.14.
For U29C A43G C56U A64U A69G A77G U91A, the self-cleavage was 0.11.
In the case of U29C G83A U104C, the self-cleavage is reported as 1.82.
U26C G105A A140G gave a self-cleavage of 0.84.
For U29C A67U U100C U134C, the self-cleavage was 0.3.
In the case of A30G A59G A138G, the self-cleavage is reported as 0.73.
Work on A30G G106C U115C yielded a self-cleavage of 2.87.
With C28G A78U G125U the self-cleavage was 0.88.
Work on U26C U85C U108C A117U yielded a self-cleavage of 0.
Work on G27C U47C A142G yielded a self-cleavage of 0.56.
In the case of U26C U73A A78G, the self-cleavage is reported as 0.4.
In the case of U29C A77U U102A, the self-cleavage is reported as 2.07.
With A30U A77G U134C the self-cleavage was 0.
A30U C63U A78G U100C A107G showed a self-cleavage of 0.9.
With A30G U45C U47C U100A A138G the self-cleavage was 0.84.
With A30U G53A A92G G125U the self-cleavage was 0.06.
Variant A30G G60U A142G has a self-cleavage of 0.06.
For U29C G36C U87C, the self-cleavage was 1.04.
In the case of A30G A42G U62A U85A, the self-cleavage is reported as 0.28.
With C28G U46C U47A A69G G72A U108C the self-cleavage was 0.42.
Variant A30G C37A A59U A129U has a self-cleavage of 0.24.
For U29A A50U A129G U134C, the self-cleavage was 1.6.
In the case of C28U C61U A94G, the self-cleavage is reported as 0.12.
With U26C G60A A77G the self-cleavage was 0.07.
For A30U C63U A141G, the self-cleavage was 0.35.
With A30G A138U A140G the self-cleavage was 1.48.
Work on U29C A77G A138G yielded a self-cleavage of 2.44.
Work on U29C A57G U134C yielded a self-cleavage of 1.38.
U29A U46G A129U showed a self-cleavage of 0.8.
In the case of U29A U46C G55A U96C U102C, the self-cleavage is reported as 0.1.
A31C A42G A136G showed a self-cleavage of 0.72.
For C28U A43G U46C G54A A94U A136G, the self-cleavage was 0.
For U26C U52A A69G A77G G106U U130C, the self-cleavage was 0.
U26C G72A A129U U132C showed a self-cleavage of 1.67.
A31C U39C U109C U130C showed a self-cleavage of 1.15.
G27A A31G U119C gave a self-cleavage of 1.58.
A30G A42G A43G A121C showed a self-cleavage of 1.45.
With A30U C71U A94G U108A A141G the self-cleavage was 0.2.
With U29C A67U U96A A141C the self-cleavage was 0.
Variant A30G A42U U45C A142U has a self-cleavage of 0.75.
Variant A31G A42G A117C U130C A138U has a self-cleavage of 2.45.
With U26C U45C U143A the self-cleavage was 0.75.
For A30G A79G U132A A138G, the self-cleavage was 0.46.
In the case of A30U A77G U102C, the self-cleavage is reported as 1.24.
Work on A30G U46C A65U yielded a self-cleavage of 0.21.
U26G A30G U39A U115C showed a self-cleavage of 0.92.
Variant A30U U62A U108C has a self-cleavage of 0.06.
U29A A31G G58U A69U C113U U119C showed a self-cleavage of 0.01.
For C28U U109C U119A U132C, the self-cleavage was 1.09.
For U29C A64U A121G, the self-cleavage was 1.04.
In the case of U29C C71A A138G, the self-cleavage is reported as 0.43.
U26G A57G A69G U96A gave a self-cleavage of 0.
A30G A69G A124U A138G gave a self-cleavage of 1.31.
With G27A G49A U87C the self-cleavage was 0.09.
For A30G U96C U132A, the self-cleavage was 0.08.
In the case of A30G G55A U119C U130C, the self-cleavage is reported as 2.3.
With U29C A30G G40A A124U A138G A140G A142G the self-cleavage was 1.93.
Work on A31G A43G U47C U73A A79G yielded a self-cleavage of 1.15.
A30G A92G A129G gave a self-cleavage of 0.
With U29A U39C G72A C90U G105A C128U U130C the self-cleavage was 0.03.
U29G U73G C116U showed a self-cleavage of 0.84.
With U26C U115C A136G the self-cleavage was 0.71.
In the case of U29C A30G C71U A92U A117G, the self-cleavage is reported as 0.46.
U29A A77U U96C U143C showed a self-cleavage of 0.16.
In the case of A30U A117U A124U, the self-cleavage is reported as 0.79.
C28G U108C A138G showed a self-cleavage of 1.67.
Work on U26C U52A G58U A94U yielded a self-cleavage of 0.06.
Work on G27A U108C A124G G126A yielded a self-cleavage of 1.47.
In the case of A30G G34A U46C, the self-cleavage is reported as 1.21.
With U29C U47A A77G U102C the self-cleavage was 1.31.
For A31G A57G A107G U115C, the self-cleavage was 0.
A30G U47G G53A A79G U134G gave a self-cleavage of 0.81.
C28U U46A U73C U87A U108C gave a self-cleavage of 0.09.
With A30G U39C G54A U87C A117G the self-cleavage was 0.
In the case of U26C U130C A142G U143C, the self-cleavage is reported as 0.66.
U29C U47A A77G A129G A141G showed a self-cleavage of 1.9.
Work on U29A A94G A129U yielded a self-cleavage of 0.1.
Variant A30U U45A U47A A78U has a self-cleavage of 1.34.
In the case of U29C U115A A142G, the self-cleavage is reported as 0.57.
Work on U29C A67C A140G yielded a self-cleavage of 0.
In the case of U26G A79U U115C A129U A138G, the self-cleavage is reported as 2.9.
With A30U A107G U108A A121G U132C the self-cleavage was 0.
U29C U45C A140C gave a self-cleavage of 1.23.
Variant A30U G36A A140G has a self-cleavage of 0.31.
Variant A30G U100A U102C has a self-cleavage of 0.77.
Variant A30G A138G A140U has a self-cleavage of 1.06.
With A30G A65G U108C A141C the self-cleavage was 0.
U26C U29A U47A U52A U104C C113A showed a self-cleavage of 1.42.
With U29A C37U A92G C98U U119C A136G G137A the self-cleavage was 0.08.
For A30U U81C U85C A92U A136U U143C, the self-cleavage was 0.24.
With U29C U45C A94G U143C the self-cleavage was 1.27.
With G27A A43G U81C the self-cleavage was 0.9.
Work on U26C U109A A141G yielded a self-cleavage of 1.61.
A31G A64U A94G showed a self-cleavage of 0.18.
U26C U96C A107G gave a self-cleavage of 0.13.
With C28U U62C C68U C84U A124G the self-cleavage was 0.
Work on U29C A57G A138G yielded a self-cleavage of 1.75.
For A30G U47C U115C, the self-cleavage was 2.95.
With A30G U47C A79G U85C the self-cleavage was 0.
For A30U G40U A141G, the self-cleavage was 1.27.
Work on A30U A77G U115C A142G yielded a self-cleavage of 0.92.
A30G A65U A142G showed a self-cleavage of 0.43.
For U29C A50G A67U, the self-cleavage was 0.23.
Work on U29C U39C U46A C146U yielded a self-cleavage of 1.03.
A30G G34A A67G showed a self-cleavage of 0.
Work on A30G U100C A121U yielded a self-cleavage of 0.78.
Variant A30G A57G G126U has a self-cleavage of 0.
For A30G A65G A79G A140G, the self-cleavage was 0.38.
For U29C A43G U46A U119C, the self-cleavage was 1.23.
G27A A30U A42G C61U gave a self-cleavage of 0.04.
Work on A30G U100C U102C C146A yielded a self-cleavage of 2.63.
Work on A30U U47C G97A U112A yielded a self-cleavage of 0.34.
With U29C A64G G80A A94U the self-cleavage was 0.18.
A30G A57G U100C gave a self-cleavage of 0.
For U29C U132C A140G, the self-cleavage was 2.66.
For U26C U109G U143A, the self-cleavage was 0.44.
In the case of U29C U45C A79G A129C, the self-cleavage is reported as 0.
U29C A136G A138G showed a self-cleavage of 0.97.
In the case of A30G A57G U96C, the self-cleavage is reported as 1.84.
Work on G27A U85A U96C U130C yielded a self-cleavage of 0.06.
Variant U29A U47A A92G has a self-cleavage of 0.18.
Work on U29G A30G A77G U96G A138G yielded a self-cleavage of 0.
With U26C U29A U73A A107G A138U the self-cleavage was 2.47.
Work on A30G G32C U45C yielded a self-cleavage of 0.92.
With A31C G32U G35A A65U G83A U119C the self-cleavage was 0.05.
U29C A77G U81C C98U showed a self-cleavage of 1.32.
Work on C28G A30U G35A G40A U52A U62C U96C yielded a self-cleavage of 0.06.
U26C U81C A124U U143G gave a self-cleavage of 2.55.
A31C A140G A142C gave a self-cleavage of 0.66.
A30G A42G U47A A121G showed a self-cleavage of 1.49.
Work on A30U U46C A59U A121U U134C yielded a self-cleavage of 0.99.
U26C U46C U62C G86A gave a self-cleavage of 0.26.
A30G A50G C113A A129U gave a self-cleavage of 1.41.
For U29G A50G A77G, the self-cleavage was 1.84.
U29C A43G U87G A141G gave a self-cleavage of 0.43.
With U29C U119C U130C the self-cleavage was 0.88.
Work on A30G A94U U115C yielded a self-cleavage of 0.6.
Variant U29C A92U A129U has a self-cleavage of 0.96.
